Measurements as given in the supplement of paper PMC6089552.
Screen size: about 3,200 compounds; about 300 (9.4%) showed activity. The entries are a selection whose mix differs from that of the whole data set.

System: A673/TR/shEF
Test: cell viability (LOESS-normalised, relative to median of negative controls) (log2 ratio); higher = more viable cells (less compound effect), active = hit call of the paper (over 3 MAD below the median)
Details: treatment time: 72 h
Outline: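 A673/TR/shEF Ewing sarcoma cells (1,500 per well, 384-well plates) were grown with or without doxycycline to induce EWS-FLI1 shRNA knockdown, starting 24 h before compounds. Library compounds at two or more concentrations, with DMSO controls, were added for three days. Cell viability was read by CellTiter-Glo luminescence on an Envision reader, then LOESS-corrected per plate, divided by the median of negative controls and log2-transformed. Hits were wells at least three median absolute deviations from the median of all screened wells.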

[1] = 0.103 µM, library screen: screen3, EWS-FLI1 expression: high (no doxycycline)
[2] = 0.103 µM, library screen: screen3, EWS-FLI1 expression: low (doxycycline-induced shRNA knockdown)
[3] = 0.25 µM, library screen: screen1, EWS-FLI1 expression: high (no doxycycline)
[4] = 0.25 µM, library screen: screen1, EWS-FLI1 expression: low (doxycycline-induced shRNA knockdown)
[5] = 0.25 µM, library screen: screen2, EWS-FLI1 expression: high (no doxycycline)
[6] = 0.25 µM, library screen: screen2, EWS-FLI1 expression: low (doxycycline-induced shRNA knockdown)
[7] = 0.308 µM, library screen: screen3, EWS-FLI1 expression: high (no doxycycline)
[8] = 0.308 µM, library screen: screen3, EWS-FLI1 expression: low (doxycycline-induced shRNA knockdown)
[9] = 0.926 µM, library screen: screen3, EWS-FLI1 expression: high (no doxycycline)
[10] = 0.926 µM, library screen: screen3, EWS-FLI1 expression: low (doxycycline-induced shRNA knockdown)
[11] = 2.5 µM, library screen: screen1, EWS-FLI1 expression: high (no doxycycline)
[12] = 2.5 µM, library screen: screen1, EWS-FLI1 expression: low (doxycycline-induced shRNA knockdown)
[13] = 2.5 µM, library screen: screen2, EWS-FLI1 expression: high (no doxycycline)
[14] = 2.5 µM, library screen: screen2, EWS-FLI1 expression: low (doxycycline-induced shRNA knockdown)
[15] = 2.8 µM, library screen: screen3, EWS-FLI1 expression: high (no doxycycline)
[16] = 2.8 µM, library screen: screen3, EWS-FLI1 expression: low (doxycycline-induced shRNA knockdown)
[17] = 8.3 µM, library screen: screen3, EWS-FLI1 expression: high (no doxycycline)
[18] = 8.3 µM, library screen: screen3, EWS-FLI1 expression: low (doxycycline-induced shRNA knockdown)
[19] = 25 µM, library screen: screen3, EWS-FLI1 expression: high (no doxycycline)
[20] = 25 µM, library screen: screen3, EWS-FLI1 expression: low (doxycycline-induced shRNA knockdown)

Measured: cell viability (log2)

CC(C)(C)NCC(O)c1ccc(O)c(CO)c1 (configuration not stated)
inactive: [1] 0.115 | [2] 0.0479 | [3] 0.11 | [4] 0.0606 | [5] 0.14 | [6] 0.0933 | [7] 0.0457 | [8] 0.00999 | [9] 0.0542 | [10] 0.0551 | [11] 0.161 | [12] 0.0729 | [13] 0.216 | [14] 0.0566 | [15] 0.102 | [16] 0.042 | [17] 0.0553 | [18] 0.0618 | [19] 0.0637 | [20] 0.0595

CC(C)=CCc1c2c(c(O)c3c(=O)c(O)c(-c4ccccc4)oc13)C=CC(C)(C)O2
inactive: [3] 0.0748 | [4] 0.0709 | [11] 0.0792 | [12] 0.116

CN(C)[C@@H](CCOc1cccc2ccccc12)c1ccccc1
inactive: [1] 0.00919 | [2] 0.105 | [7] 0.0155 | [8] 0.101 | [9] 0.111 | [10] 0.00844 | [15] 0.127 | [16] 0.138 | [17] -0.0355 | [18] 0.059 | [19] 0.0839 | [20] 0.0383

Nn1nnc2ccccc21
inactive: [5] 0.128 | [6] 0.171 | [13] 0.0307 | [14] 0.0733

CN(C)CCCC1(c2ccc(F)cc2)OCc2cc(C#N)ccc21 (configuration not stated)
inactive: [5] 0.166 | [6] 0.0806 | [13] 0.0347 | [14] 0.0427

CCCC(CCC)C(=O)O
inactive: [1] 0.0654 | [2] 0.0359 | [3] 0.127 | [4] 0.0898 | [5] 0.1 | [6] 0.102 | [7] 0.0959 | [8] 0.0314 | [9] -0.00782 | [10] 0.0593 | [11] 0.159 | [12] 0.24 | [13] 0.102 | [14] 0.0392 | [15] 0.0123 | [16] 0.0886 | [17] 0.0187 | [18] 0.0553 | [19] -0.0053 | [20] 0.0943

O=C(O)CNC(=O)C(CS)Cc1ccccc1 (configuration not stated)
inactive: [5] 0.00126 | [6] 0.153 | [13] 0.146 | [14] 0.0189

COC[C@@H](c1ccc(C(F)(F)F)cc1)N1CCN(C2(C)CCN(C(=O)c3c(C)ncnc3C)CC2)C[C@@H]1C
inactive: [1] 0.0241 | [2] 0.0743 | [7] 0.103 | [8] 0.0427 | [9] 0.0552 | [10] 0.0603 | [15] 0.0435 | [16] -0.0282 | [17] 0.118 | [18] 0.021 | [19] 0.0244 | [20] 0.00778

Cc1onc(-c2ccccc2)c1C(=O)N[C@@H]1C(=O)N2[C@@H]1SC(C)(C)[C@@H]2C(=O)O
inactive: [3] 0.0236 | [4] 0.0369 | [11] 0.14 | [12] 0.0664

COc1ccccc1CNCCCCCCNCCCCCCCCNCCCCCCNCc1ccccc1OC
inactive: [5] 0.191 | [6] 0.119 | [13] 0.173 | [14] 0.0261

CC1(C)O[C@H]2[C@H](O)C[C@](O)(C(N)=O)C[C@H]2O1
inactive: [3] -0.0199 | [4] -0.00566 | [11] 0.076 | [12] 0.0924

COc1c2c(cc3occ(-c4ccc5c(c4)OCO5)c(=O)c13)OC(C)(C)C=C2
active: [3] -0.144

COC1=CC(=O)C[C@@H](C)[C@]12Oc1c(Cl)c(OC)cc(OC)c1C2=O
inactive: [3] 0.0797 | [4] 0.0471 | [11] 0.105 | [12] 0.048

CCC(=O)NCC[C@@H]1CCc2ccc3c(c21)CCO3
inactive: [1] 0.0633 | [2] 0.0965 | [7] 0.12 | [8] 0.0812 | [9] 0.0466 | [10] 0.0558 | [15] 0.132 | [16] 0.0504 | [17] 0.111 | [18] 0.0117 | [19] 0.0563 | [20] 0.117

COc1ccc(-c2coc3cc(O)cc(O)c3c2=O)cc1
inactive: [3] 0.0602 | [4] 0.0877 | [11] 0.109 | [12] 0.152

COc1ccccc1N1CCN(CCN2C(=O)CC3(CCCC3)CC2=O)CC1
inactive: [5] 0.133 | [6] 0.109 | [13] 0.153 | [14] 0.0757
